Laboratory results as given in publication PMC4336329 (PLoS ONE, 2015).
Screen size: about 310,000 compounds; about 2,200 (0.71%) showed an effect of 50% or more. Effects have a minus sign here. The list shows a part of the results.

target: human ether-à-go-go-related gene (hERG) potassium channel (human, UniProt Q12809); experiment: primary screen, population patch clamp on CHO cells stably expressing hERG
Sequence (Q12809 whole entry, looked up): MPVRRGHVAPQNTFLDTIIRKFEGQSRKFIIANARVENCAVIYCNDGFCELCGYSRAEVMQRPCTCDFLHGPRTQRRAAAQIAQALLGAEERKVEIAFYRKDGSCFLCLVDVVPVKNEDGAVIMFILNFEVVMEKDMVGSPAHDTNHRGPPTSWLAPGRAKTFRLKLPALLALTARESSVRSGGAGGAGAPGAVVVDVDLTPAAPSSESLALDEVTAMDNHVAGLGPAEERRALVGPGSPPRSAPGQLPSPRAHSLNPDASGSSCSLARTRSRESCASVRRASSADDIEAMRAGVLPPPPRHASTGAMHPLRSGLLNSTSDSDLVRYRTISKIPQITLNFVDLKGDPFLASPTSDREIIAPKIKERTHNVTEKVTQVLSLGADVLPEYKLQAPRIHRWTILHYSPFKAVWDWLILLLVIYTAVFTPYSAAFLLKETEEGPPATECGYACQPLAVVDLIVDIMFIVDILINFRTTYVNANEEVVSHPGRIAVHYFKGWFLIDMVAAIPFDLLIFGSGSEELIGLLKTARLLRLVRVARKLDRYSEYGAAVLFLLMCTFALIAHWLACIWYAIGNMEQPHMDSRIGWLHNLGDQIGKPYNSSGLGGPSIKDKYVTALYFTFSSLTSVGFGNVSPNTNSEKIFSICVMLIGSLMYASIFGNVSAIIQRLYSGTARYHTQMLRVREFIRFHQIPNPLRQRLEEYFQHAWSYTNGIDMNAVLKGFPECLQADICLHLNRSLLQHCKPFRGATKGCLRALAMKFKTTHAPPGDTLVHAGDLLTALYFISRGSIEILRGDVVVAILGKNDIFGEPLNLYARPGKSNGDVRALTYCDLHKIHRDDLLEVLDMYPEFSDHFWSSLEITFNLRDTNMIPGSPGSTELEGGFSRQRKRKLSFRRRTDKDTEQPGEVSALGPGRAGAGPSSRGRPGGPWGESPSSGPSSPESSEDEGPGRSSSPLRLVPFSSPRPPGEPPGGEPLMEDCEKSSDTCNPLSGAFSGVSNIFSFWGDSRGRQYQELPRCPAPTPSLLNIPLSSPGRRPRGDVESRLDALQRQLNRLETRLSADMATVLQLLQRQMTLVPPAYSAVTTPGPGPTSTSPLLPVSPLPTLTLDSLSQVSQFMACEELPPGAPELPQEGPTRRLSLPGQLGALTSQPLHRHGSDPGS

SMILES	hERG current change (%, negative = inhibition) at 1uM
Cc1[nH]c2ccccc2c1C(=O)C(=O)Nc1ccc2c(c1)OCCO2	8%
COc1cc(/C=N/n2nnnc2N)ccc1OCC(N)=O	15.2%
Nc1ncc2c(n1)CC(c1ccco1)CC2=O (stereo not drawn)	12.2%
Cn1c(CCNC(=O)c2ccco2)nc2cc(NS(=O)(=O)c3ccccc3)ccc21	-14%
O=C1CN(C(=O)CNC(=O)c2cccc(Cl)c2)c2ccccc2N1	6.21%
CCCCC1C(=O)CC[C@H]2[C@@H]1CC(=O)[C@@H]2C/C=C\CCCC(=O)O (stereo partly drawn)	5.85%
Cn1c(SCC(=O)NC(C)(C)C)nnc1-c1ccc(C(C)(C)C)cc1	8.15%
COc1cc(CCC(=O)Oc2ccc(C(C)=O)cc2)cc(OC)c1OC	3.59%
Cc1ccc(-c2cnn(-c3cccc(C(F)(F)F)c3)c2N)cc1	1.51%
Brc1ccc(CN2CCN(Cc3c[nH]c4ccccc34)CC2)cc1.O=C(O)C(=O)O	-22%
O=C(NNS(=O)(=O)c1ccccc1[N+](=O)[O-])c1cccc(Cl)c1	4.42%
NS(=O)(=O)c1ccc(CNC(=O)CSc2nc3ccc(Cl)cc3[nH]2)cc1	15.3%
CN1CCc2c(sc(NC(=O)Cc3ccccc3)c2C#N)C1.Cl	1.89%
CCOc1ccc(OCC)c(-c2c(=O)n(OCc3ccccc3C(=O)OC)c3ccccc3[n+]2[O-])c1	-1.98%
CN(CC(=O)NC1CCCCCC1)S(=O)(=O)c1ccccc1	-5.08%
CC1(C)NC(=O)N(CC(=O)OCC(=O)Nc2cccc(S(N)(=O)=O)c2)C1=O	-0.863%
Cc1csc(NC(=O)CSc2ccc(-c3ccccn3)nn2)n1	-8.19%
Cc1ccc2c(c1)N(CC(=O)NCCc1ccc(Cl)cc1)C(=O)c1cccnc1O2	-13.2%
Cc1ccc(C)c(C(=O)C(C)OC(=O)c2cccn2C)c1 (stereo not drawn)	13.2%
CC(=O)Nc1ccc(S(=O)(=O)N(CCCN2CCOCC2)Cc2cccs2)cc1.O=C(O)C(=O)O	5.93%
CCc1ccc(-c2cc(C(=O)Nc3ccc(S(=O)(=O)NC(C)=O)cc3)c3ccccc3n2)cc1	6.96%
COc1ccc2cc(C(=O)c3ccccc3)c(=O)oc2c1	12.5%
CC(C)c1csc(CN2CCN(Cc3ccccc3)C(CCO)C2)n1 (stereo not drawn)	10.1%
CN(C)CCCCCNCCCNC(=O)/C=N\O	14.7%
